± gives the standard deviation of the averaged measurements. This is one part of the list.
The sequences below were run on PfAP2-EXP AP2 domain (GST-tagged) (assay: gcPBM binding intensity (ln(normalized median fluorescence intensity)); higher = stronger DNA binding).
In short: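 GST-tagged P. falciparum DNA-binding domains, expressed in E. coli (about 25 μg on average), were applied for 1 h to an Agilent 4 × 180k array of primer-extended double-stranded 36-bp intergenic genomic probes plus negative controls. The binding buffer was 1× PBS with 1% milk, 0.2 mg/ml BSA, 0.5% salmon testes DNA and 0.03% Triton X-100. Bound protein was detected with Alexa488 anti-GST antibody and scanned at 488 nm. Binding intensity is the highest Masliner-normalised natural-log median intensity across replicate spots of either probe orientation.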

Row | Sequence | gcPBM binding intensity (ln)
1 | TTAAACCGTGGGAGCACACACACACCCAGACACATA [CACACA_site4337] | 8.44 ± 0.48
2 | TAAGGTTAAATAATATGTACATATTATTATATATAT [XGTACX_site6953] | 8.74 ± 0.085
3 | TTATGGGACTCAAATACATGCAAAAATATTTTTAAG [TGCATGCA_site559] | 9.02 ± 0.31
4 | CACGTGTAAATAGTTTTACAATATCTCGATATGTAT [CACACA_negctrl_site785] | 8.45 ± 0.36
5 | TTATATGAAAATTATTGTACAATCTATAAAAAAAAT [XGTACX_site4194] | 8.73 ± 0.46
6 | TTACTATGTAAACACACATGCAATATATGTTAAGCC [TGCATGCA_site253] | 8.79 ± 0.2
7 | GGATATATGAAACATATTGAAAAACCGTTTAGTACA [CACACA_negctrl_site132] | 8.63 ± 0.31
8 | TAATTTTTGTAAACAGTCATGGATTCAAAAAAAAAA [CACACA_negctrl_site593] | 8.26 ± 0.44
9 | GTAATTATATACATACGTACATACACATATGTATAT [XGTACX_site4149] | 8.56 ± 0.33
10 | AAGGAAATAAGAAAAAGTACACATAAGTATATAACA [XGTACX_site1173] | 8.94 ± 0.42
11 | TAATAATCAAACTATACACACATAAATAAATATATA [CACACA_site156] | 8.57 ± 0.26
12 | AAAATATATCAAAATAGTACATAATTTTTTAAGAAT [XGTACX_site3515] | 8.45 ± 0.37
13 | AAAAATGTGCACACGCGTACACACAAAAAAAGAAAA [XGTACX_site4097] | 9.05 ± 0.28
14 | GTAGTAATAAATCTAGTGCATTATATATAACAAAAA [GTGCAC_site9803] | 8.81 ± 0.3
15 | TTTTTTTCTTTTTTTTGTACTCATACATACTATCAT [XGTACX_site607] | 8.64 ± 0.46
16 | AATAAAGCAATAAATACACACATATATATATATATA [CACACA_site2934] | 10.1 ± 0.45
17 | TATATAAAAAATAGGTGGTCAACTTAAATATTTTAT [XGTACX_site4495] | 8.4 ± 0.34
18 | AGTTATGCATCTTAGGTGCTATGCCCAATTTATTTT [GTGCAC_site9977] | 8.6 ± 0.33
19 | AACTTACTCTTTACAAGTACGTAAAAGAAATAGAAA [XGTACX_site1782] | 8.51 ± 0.41
20 | TTGCCTTAAAAAGGAACACACATGCTTTTTTTAGTT [CACACA_site938] | 8.37 ± 0.45
21 | AAAAAAAAAAAAAATGCACACATATATTTCCATATA [CACACA_site8416] | 8.56 ± 0.2
22 | ACAAAGTAAAATAATGCATGTAGGTATACATAATTA [TGCATGCA_site607] | 8.59 ± 0.4

Row | Sequence | gcPBM binding intensity (ln)
23 | GTGCTAAAAGTATATGCACACACATATATATGCACA [CACACA_site8472] | 8.88 ± 0.26
24 | AATATTTTATATAAATGTACATTTATGAATAATATA [XGTACX_site8477] | 8.46 ± 0.42
25 | ACATATTTCCAATAATGTACATACAAAATAAGAATG [XGTACX_site2659] | 8.71 ± 0.38
26 | TGTTCATTTATTTACTTACACACTTTATATATGTGG [CACACA_site1410] | 8.79 ± 0.53
27 | TAAAAGTAGATATATACACACATAAATATAGATGTA [CACACA_site6457] | 8.33 ± 0.31
28 | AGGAAAAAAAAAATGTGTACTTAAAAAAAAAAAATT [XGTACX_site1471] | 8.45 ± 0.35
29 | AATAAATAAATATATACACACATATATCTGTACATA [CACACA_site9034] | 8.54 ± 0.49
30 | TTTTATCATATTTATTGTACACATAATATACATATC [XGTACX_site1145] | 8.83 ± 0.28
31 | CGTTTATATTTTAACTGTACTCAAAAAGTGCATTGT [XGTACX_site6072] | 8.53 ± 0.099
32 | TTTTATATATTATATACACACATATATATATATATA [CACACA_site2999] | 10.2 ± 0.32
33 | TGTATGTTTATTTATCGTACATATATATATATATAT [XGTACX_site7315] | 10.2 ± 0.18
34 | TAAATTATAATAAATACACACAAATTATAATTCTAT [CACACA_site3942] | 8.52 ± 0.45
35 | CATTTTATAAAAAGCACACATATAGTTATATGCACA [CACACA_site3691] | 8.8 ± 0.12
36 | TATATATATATACATTGTACATTATTGATTATAACA [XGTACX_site1678] | 10 ± 0.17
37 | TTTGAATCCTTATATACACACATTATATAATATTAT [CACACA_site4472] | 8.73 ± 0.35
38 | TTTATTCTCCGACACACACACATATATTTATTTATA [CACACA_site7377] | 8.85 ± 0.48
39 | AAATTAGAATTAGGAACACACATATTTATATTTATA [CACACA_site7450] | 8.33 ± 0.44
40 | ATATATAAAAAATGTGGTACATTCATTTATTATACA [XGTACX_site3495] | 8.2 ± 0.29
41 | TTAGGACAAAAAAAAATAAAAATAAAATAAAATAAT [CACACA_negctrl_site1613] | 8.55 ± 0.44
42 | TATTAAATGAAACAAACACACATAGCCTTTAAATAT [CACACA_site1560] | 8.61 ± 0.57
43 | ATTTTTTTTTTTATAGTGGAACCACATTTGCCATTT [CACACA_negctrl_site1247] | 8.71 ± 0.43
44 | ATATATATATCATATTGTACATATTATTGTATAATC [XGTACX_site5020] | 9.24 ± 0.19

Reference: the supplement of paper PMC11417369
